These compounds were tested against Recombinant heterodimeric HCV NS3/NS4A protease (strain 1a) (Hepatitis C virus genotype 1a, UniProt P27958) (assay: HCV continuous assay (spectrophotometric HCV NS3/NS4A serine protease inhibition assay)). Details: Table 1; ranges of Ki* values in HCV continuous assay.
Type: biochemical, HCV (strain 1a)

`CN1CCCN(C[C@@H](NC(=O)N[C@H](C(=O)N2C[C@H]3[C@@H]([C@H]2C(=O)NC(CC2CC2)C(=O)C(N)=O)C3(C)C)C(C)(C)C)C(C)(C)C)S1(=O)=O` (stereo partly drawn) [Compound 5130] and `CC(C)(C)[C@H](NC(=O)N[C@H](CN1CCCS1(=O)=O)C(C)(C)C)C(=O)N1C[C@H]2[C@@H]([C@H]1C(=O)NC(CC1CCC1)C(=O)C(N)=O)C2(C)C` (stereo partly drawn) [Compound 5116] cannot be ordered by Ki: no more than 50 nM for the first, no more than 50 nM for the second.

`C=CCNC(=O)C(=O)C(CCC)NC(=O)[C@@H]1[C@@H]2[C@H](CN1C(=O)[C@@H](NC(=O)N[C@H](CN1CCCNS1(=O)=O)C(C)(C)C)C(C)(C)C)C2(C)C` (stereo partly drawn) [Compound 5216] and `CCCC(NC(=O)[C@@H]1[C@@H]2[C@H](CN1C(=O)[C@@H](NC(=O)N[C@H](CN1CCCS1(=O)=O)C(C)(C)C)C(C)(C)C)C2(C)C)C(=O)C(=O)NCC` (stereo partly drawn) [Compound 5123] cannot be ordered by Ki: greater than 50 nM for the first, no more than 50 nM for the second.

`CC(C)(C)[C@@H](CN1Cc2sccc2S1(=O)=O)NC(=O)N[C@H](C(=O)N1C[C@H]2[C@@H]([C@H]1C(=O)NC(CC1CCC1)C(=O)C(N)=O)C2(C)C)C1CCCCC1` (stereo partly drawn) [Compound 5184] and `C=CCNC(=O)C(=O)C(CC1CC1)NC(=O)[C@@H]1[C@@H]2[C@H](CN1C(=O)[C@@H](NC(=O)N[C@H](CN1Cc3sccc3S1(=O)=O)C(C)(C)C)C(C)(C)C)C2(C)C` (stereo partly drawn) [Compound 5153] cannot be ordered by Ki: no more than 50 nM for the first, no more than 50 nM for the second.

`C=CCNC(=O)C(=O)C(CCCC)NC(=O)[C@@H]1[C@@H]2[C@H](CN1C(=O)[C@@H](NC(=O)N[C@H](CN1Cc3ccccc3S1(=O)=O)C(C)(C)C)C1(C)CCCCC1)C2(C)C` (stereo partly drawn) [Compound 5258] and `C=CCNC(=O)C(=O)C(CCC)NC(=O)[C@@H]1[C@@H]2[C@H](CN1C(=O)[C@@H](NC(=O)N[C@H](CN1CCCCS1(=O)=O)C1CCCCC1)C(C)(C)C)C2(C)C` (stereo partly drawn) [Compound 5224] cannot be ordered by Ki: no more than 50 nM for the first, no more than 50 nM for the second.

`C=CCNC(=O)C(=O)C(CC1CCC1)NC(=O)[C@@H]1[C@@H]2[C@H](CN1C(=O)[C@@H](NC(=O)N[C@H](CN1CCCCS1(=O)=O)C1CCCCC1)C(C)(C)C)C2(C)C` (stereo partly drawn) [Compound 5234] and `C=CCNC(=O)C(=O)C(CC1CC1)NC(=O)[C@@H]1[C@@H]2[C@H](CN1C(=O)[C@@H](NC(=O)N[C@H](CN1CCCCS1(=O)=O)C1CCCCC1)C(C)(C)C)C2(C)C` (stereo partly drawn) [Compound 5228] cannot be ordered by Ki: greater than 50 nM for the first, no more than 50 nM for the second.

`CNC(=O)C(=O)C(CC1CC1)NC(=O)[C@@H]1[C@@H]2[C@H](CN1C(=O)[C@@H](NC(=O)N[C@H](CN1CCCS1(=O)=O)C(C)C)C(C)(C)C)C2(C)C` (stereo partly drawn) [Compound 5110] showed a Ki of no more than 50 nM.

Same assay, conditions: Table 2; ranges of Ki* values in HCV continuous assay

`C=CCNC(=O)C(=O)C(CCC)NC(=O)[C@@H]1[C@@H]2[C@H](CN1C(=O)[C@@H](NC(=O)N[C@H](CN1Cc3ccccc3CC1=O)C(C)(C)C)C(C)(C)C)C2(C)C` (stereo partly drawn) [Compound 5707] and `C=CCNC(=O)C(=O)C(CC1CCC1)NC(=O)[C@@H]1[C@@H]2[C@H](CN1C(=O)[C@@H](NC(=O)N[C@H](CN1C(=O)Cc3ccccc3C1=O)C(C)(C)C)C(C)(C)C)C2(C)C` (stereo partly drawn) [Compound 5738] cannot be ordered by Ki: no more than 50 nM for the first, greater than 50 nM for the second.

`CC(C)(C)OC(=O)N1CC[C@H](NC(=O)N[C@H](C(=O)N2C[C@@H]3OC(C)(C)C[C@@H]3[C@H]2C(=O)NC(CC2CC2)C(=O)C(N)=O)C2CCCCC2)C1` (stereo partly drawn) [Compound 5625] and `C=CCNC(=O)C(=O)C(CC1CCC1)NC(=O)[C@@H]1[C@@H]2[C@H](CN1C(=O)[C@@H](NC(=O)N[C@H](CN1C(=O)CC(C)(C)CC1=O)C(C)(C)C)C1CCCCC1)C2(C)C` (stereo partly drawn) [Compound 5788] cannot be ordered by Ki: greater than 50 nM for the first, no more than 50 nM for the second.

`CC(C)(C)[C@H](NC(=O)N[C@H](CN1CCCOC1=O)C(C)(C)C)C(=O)N1C[C@H]2[C@@H]([C@H]1C(=O)NC(CC1CCC1)C(=O)C(N)=O)C2(C)C` (mixture of isomers) [Compound 5700] and `C=CCNC(=O)C(=O)C(CC1CC1)NC(=O)[C@@H]1[C@@H]2[C@H](CN1C(=O)[C@@H](NC(=O)N[C@H](CN1CCCOC1=O)C(C)(C)C)C(C)(C)C)C2(C)C` (stereo partly drawn) [Compound 5702] cannot be ordered by Ki: no more than 50 nM for the first, no more than 50 nM for the second.

`C=CCNC(=O)C(=O)C(CC1CC1)NC(=O)[C@@H]1[C@@H]2[C@H](CN1C(=O)[C@@H](NC(=O)N(C)[C@H](CN1C(=O)CNC1=O)C(C)(C)C)C(C)(C)C)C2(C)C` (stereo partly drawn) [Compound 5816] and `CC1(C)CC(=O)N(C[C@@H](NC(=O)N[C@H](C(=O)N2C[C@H]3[C@@H]([C@H]2C(=O)NC(CC2CC2)C(=O)C(N)=O)C3(C)C)C(C)(C)C)C(C)(C)C)C(=O)C1` (stereo partly drawn) [Compound 5761] cannot be ordered by Ki: no more than 50 nM for the first, no more than 50 nM for the second.

`CC(C)(C)[C@H](NC(=O)N[C@H](Cn1ccccc1=O)C(C)(C)C)C(=O)N1C[C@H]2[C@@H]([C@H]1C(=O)NC(CC1CCC1)C(=O)C(N)=O)C2(C)C` (mixture of isomers) [Compound 5648] and `CC(C)[C@@H](CN1CCCCC1=O)NC(=O)N[C@H](C(=O)N1C[C@H]2[C@@H]([C@H]1C(=O)NC(CC1CCC1)C(=O)C(N)=O)C2(C)C)C(C)(C)C` (mixture of isomers) [Compound 5632] cannot be ordered by Ki: no more than 50 nM for the first, no more than 50 nM for the second.

`CCCCC(NC(=O)[C@@H]1[C@@H]2[C@H](CN1C(=O)[C@@H](NC(=O)NC1(CN3C(=O)c4ccccc4C3=O)CCCCC1)C(C)(C)C)C2(C)C)C(=O)C(N)=O` (stereo partly drawn) [Compound 5680] and `C=CCNC(=O)C(=O)C(CCCC)NC(=O)[C@@H]1[C@@H]2[C@H](CN1C(=O)[C@@H](NC(=O)N[C@H](Cn1ccccc1=O)C(C)C)C(C)(C)C)C2(C)C` (stereo partly drawn) [Compound 5610] cannot be ordered by Ki: no more than 50 nM for the first, no more than 50 nM for the second.

`C=CCNC(=O)C(=O)C(CCC)NC(=O)[C@@H]1[C@@H]2[C@H](CN1C(=O)[C@@H](NC(=O)N[C@H](CN1C(=O)CC(C)(C)CC1=O)C(C)(C)C)C1CCCCC1)C2(C)C` (stereo partly drawn) [Compound 5776] gave a Ki of no more than 50 nM.
